Assay results published in the supplement of paper PMC8728848.
Some of the results follow.

Tests used:
Assay in all cases: glycan array binding signal (z-score within array); higher = stronger binding
Conditions in all cases: glycan notation: IUPAC condensed, linker removed
[1] = target: Neu5Ac(a2-3)Gal(b1-3)[Fuc(a1-4)]GlcNAc
Outline: (§1)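 The binding signal is a Z-score computed within each array. Data were drawn from 3228 arrays in the Consortium for Functional Glycomics database, restricted to those with a known protein sequence. Scores were averaged over arrays of the same protein sequence at different concentrations or buffers, and over linkers, and negative values can be taken as non-binding.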

[2] = target: Neu5Ac(a2-3)Gal(b1-3)[Fuc(a1-4)]GlcNAc(b1-3)Gal(b1-4)[Fuc(a1-3)]GlcNAc
Outline: as §1

[3] = target: Neu5Ac(a2-3)Gal(b1-3)[Neu5Ac(a2-3)Gal(b1-4)]GlcNAc
Outline: as §1

[4] = target: Neu5Ac(a2-3)Gal(b1-3)[Neu5Ac(a2-6)]GalNAc
Outline: as §1

Neu5Ac(a2-3)Gal(b1-4)Glc = target: Neu5Ac(a2-3)Gal(b1-4)Glc
Outline: as §1

[5] = target: Neu5Ac(a2-3)Gal(b1-4)GlcNAc
Outline: as §1

[6] = target: Neu5Ac(a2-3)Gal(b1-4)GlcNAc(b1-2)Man(a1-3)[GlcNAc(b1-2)Man(b1-4)GlcNAc(b1-2)Man(a1-6)]Man(b1-4)GlcNAc(b1-4)GlcNAc
Outline: as §1

[7] = target: Neu5Ac(a2-3)Gal(b1-4)GlcNAc(b1-2)Man(a1-3)[Neu5Ac(a2-6)Gal(b1-4)GlcNAc(b1-2)Man(a1-6)]Man(b1-4)GlcNAc(b1-4)GlcNAc
Outline: as §1

[8] = target: Neu5Ac(a2-3)Gal(b1-4)GlcNAc(b1-3)Gal(b1-3)GlcNAc
Outline: as §1

[9] = target: Neu5Ac(a2-3)Gal(b1-4)GlcNAc(b1-3)Gal(b1-4)GlcNAc
Outline: as §1

[10] = target: Neu5Ac(a2-3)Gal(b1-4)GlcNAc(b1-3)Gal(b1-4)GlcNAc(b1-3)Gal(b1-4)GlcNAc
Outline: as §1

[11] = target: Neu5Ac(a2-3)Gal(b1-4)GlcNAc(b1-3)Gal(b1-4)[Fuc(a1-3)]GlcNAc
Outline: as §1

[12] = target: Neu5Ac(a2-3)Gal(b1-4)GlcNAc(b1-6)[Gal(b1-3)]GalNAc
Outline: as §1

[13] = target: Neu5Ac(a2-3)Gal(b1-4)GlcNAc(b1-6)[Neu5Ac(a2-3)Gal(b1-3)]GalNAc
Outline: as §1

[14] = target: Neu5Ac(a2-3)Gal(b1-4)GlcNAc6S
Outline: as §1

[15] = target: Neu5Ac(a2-3)Gal(b1-4)[Fuc(a1-3)]GlcNAc
Outline: as §1

[16] = target: Neu5Ac(a2-3)Gal(b1-4)[Fuc(a1-3)]GlcNAc(b1-3)Gal
Outline: as §1

[17] = target: Neu5Ac(a2-3)Gal(b1-4)[Fuc(a1-3)]GlcNAc(b1-3)Gal(b1-4)GlcNAc
Outline: as §1

[18] = target: Neu5Ac(a2-3)Gal(b1-4)[Fuc(a1-3)]GlcNAc(b1-3)Gal(b1-4)[Fuc(a1-3)]GlcNAc(b1-3)Gal(b1-4)[Fuc(a1-3)]GlcNAc
Outline: as §1

[19] = target: Neu5Ac(a2-3)Gal(b1-4)[Fuc(a1-3)]GlcNAc(b1-6)[Gal(b1-3)]GalNAc
Outline: as §1

[20] = target: Neu5Ac(a2-3)Gal(b1-4)[Fuc(a1-3)]GlcNAc6S
Outline: as §1

[21] = target: Neu5Ac(a2-3)Gal6S(b1-4)GlcNAc
Outline: as §1

[22] = target: Neu5Ac(a2-3)Gal6S(b1-4)[Fuc(a1-3)]GlcNAc
Outline: as §1

Neu5Ac(a2-3)GalNAc = target: Neu5Ac(a2-3)GalNAc
Outline: as §1

[23] = target: Neu5Ac(a2-3)GalNAc(b1-4)GlcNAc
Outline: as §1

[24] = target: Neu5Ac(a2-3)[GalNAc(b1-4)]Gal(b1-4)Glc
Outline: as §1

[25] = target: Neu5Ac(a2-3)[GalNAc(b1-4)]Gal(b1-4)GlcNAc
Outline: as §1

[26] = target: Neu5Ac(a2-3)[Neu5Ac(a2-6)]GalNAc
Outline: as §1

Neu5Ac(a2-6)Gal = target: Neu5Ac(a2-6)Gal
Outline: as §1

Neu5Ac(a2-6)Gal(b1-4)Glc = target: Neu5Ac(a2-6)Gal(b1-4)Glc
Outline: as §1

[27] = target: Neu5Ac(a2-6)Gal(b1-4)GlcNAc
Outline: as §1

[28] = target: Neu5Ac(a2-6)Gal(b1-4)GlcNAc(b1-2)Man(a1-3)[Gal(b1-4)GlcNAc(b1-2)Man(a1-6)]Man(b1-4)GlcNAc(b1-4)GlcNAc
Outline: as §1

[29] = target: Neu5Ac(a2-6)Gal(b1-4)GlcNAc(b1-2)Man(a1-3)[GlcNAc(b1-2)Man(a1-6)]Man(b1-4)GlcNAc(b1-4)GlcNAc
Outline: as §1

[30] = target: Neu5Ac(a2-6)Gal(b1-4)GlcNAc(b1-2)Man(a1-3)[GlcNAc(b1-2)Man(b1-4)GlcNAc(b1-2)Man(a1-6)]Man(b1-4)GlcNAc(b1-4)GlcNAc
Outline: as §1

[31] = target: Neu5Ac(a2-6)Gal(b1-4)GlcNAc(b1-2)Man(a1-3)[Neu5Ac(a2-6)Gal(b1-4)GlcNAc(b1-2)Man(a1-6)]Man(b1-4)GlcNAc(b1-4)GlcNAc
Outline: as §1

[32] = target: Neu5Ac(a2-6)Gal(b1-4)GlcNAc(b1-2)Man(a1-6)[Gal(b1-4)GlcNAc(b1-2)Man(a1-3)]Man(b1-4)GlcNAc(b1-4)GlcNAc
Outline: as §1

[33] = target: Neu5Ac(a2-6)Gal(b1-4)GlcNAc(b1-2)Man(a1-6)[GlcNAc(b1-2)Man(a1-3)]Man(b1-4)GlcNAc(b1-4)GlcNAc
Outline: as §1

[34] = target: Neu5Ac(a2-6)Gal(b1-4)GlcNAc(b1-3)Gal(b1-4)GlcNAc
Outline: as §1

[35] = target: Neu5Ac(a2-6)Gal(b1-4)GlcNAc(b1-3)Gal(b1-4)[Fuc(a1-3)]GlcNAc(b1-3)Gal(b1-4)[Fuc(a1-3)]GlcNAc
Outline: as §1

[36] = target: Neu5Ac(a2-6)Gal(b1-4)GlcNAc6S
Outline: as §1

Neu5Ac(a2-6)GalNAc = target: Neu5Ac(a2-6)GalNAc
Outline: as §1

[37] = target: Neu5Ac(a2-6)GalNAc(b1-4)GlcNAc
Outline: as §1

Neu5Ac(a2-8)Neu5Ac = target: Neu5Ac(a2-8)Neu5Ac
Outline: as §1

[38] = target: Neu5Ac(a2-8)Neu5Ac(a2-3)Gal(b1-4)Glc
Outline: as §1

[39] = target: Neu5Ac(a2-8)Neu5Ac(a2-3)[GalNAc(b1-4)]Gal(b1-4)Glc
Outline: as §1

[40] = target: Neu5Ac(a2-8)Neu5Ac(a2-8)Neu5Ac
Outline: as §1

[41] = target: Neu5Ac(a2-8)Neu5Ac(a2-8)Neu5Ac(a2-3)Gal(b1-4)Glc
Outline: as §1

[42] = target: Neu5Ac(a2-8)Neu5Ac(a2-8)Neu5Ac(a2-3)[GalNAc(b1-4)]Gal(b1-4)Glc
Outline: as §1

[43] = target: Neu5Ac(a2-8)Neu5Ac(a2-8)Neu5Ac(a2-8)Neu5Ac(a2-3)[GalNAc(b1-4)]Gal(b1-4)Glc
Outline: as §1

[44] = target: Neu5Ac(b2-6)Gal(b1-4)GlcNAc
Outline: as §1

Neu5Ac(b2-6)GalNAc = target: Neu5Ac(b2-6)GalNAc
Outline: as §1

[45] = target: Neu5Ac9Ac(a2-6)Gal(b1-4)GlcNAc
Outline: as §1

[46] = target: Neu5Gc(a2-3)Gal(b1-3)GlcNAc
Outline: as §1

[47] = target: Neu5Gc(a2-3)Gal(b1-3)[Fuc(a1-4)]GlcNAc
Outline: as §1

Neu5Gc(a2-3)Gal(b1-4)Glc = target: Neu5Gc(a2-3)Gal(b1-4)Glc
Outline: as §1

[48] = target: Neu5Gc(a2-3)Gal(b1-4)GlcNAc
Outline: as §1

[49] = target: Neu5Gc(a2-3)Gal(b1-4)[Fuc(a1-3)]GlcNAc
Outline: as §1

[50] = target: Neu5Gc(a2-6)Gal(b1-4)GlcNAc
Outline: as §1

Neu5Gc(a2-6)GalNAc = target: Neu5Gc(a2-6)GalNAc
Outline: as §1

[51] = target: Neu5Gc(b2-6)Gal(b1-4)GlcNAc
Outline: as §1

B1: NKp30 (Homo sapiens), O14931 (protein)
chain: MAWMLLLILIMVHPGSCALWVSQPPEIRTLEGSSAFLPCSFNASQGRLAIGSVTWFRDEVVPGKEVRNGTPERFGRLAPLASSRFLHDHQAELHIRDVRGHDASIYVCRVEVLGLGVGTGNGTRLVVRKEHPQLGAGTHADPEAPEAEGAPSVFLFPPKPKDTLMISRTPEVTCVVVDVSHEDPEVKFNWYVDGVEVHNAKTPREEQYNSTYRVVSVLTVLHQDWLNGKEYKCKVSNKALPAPIEKTISKAKGQPREPQVYTLPPSRDELTKNQVSLTCLVKGFYPSDIAVEWESNGQPENNYKTTPPVLDSDGSFFLYSKLTVDKSRWQQGNVFSCSVMHEALHNHYTQKSLSLSPGK
glycan array binding signal (z-score) [1]: -0.058 | glycan array binding signal (z-score) [2]: 0.394 | glycan array binding signal (z-score) [3]: -0.341 | glycan array binding signal (z-score) [4]: -0.03 | glycan array binding signal (z-score) (Neu5Ac(a2-3)Gal(b1-4)Glc): -0.284 | glycan array binding signal (z-score) [5]: 0.12 | glycan array binding signal (z-score) [6]: -0.438 | glycan array binding signal (z-score) [7]: -0.27 | glycan array binding signal (z-score) [8]: -0.795 | glycan array binding signal (z-score) [9]: -0.494 | glycan array binding signal (z-score) [10]: -0.284 | glycan array binding signal (z-score) [11]: -0.395 | glycan array binding signal (z-score) [12]: -0.411 | glycan array binding signal (z-score) [13]: -0.587 | glycan array binding signal (z-score) [14]: 0.043 | glycan array binding signal (z-score) [15]: -0.045 | glycan array binding signal (z-score) [16]: 0.191 | glycan array binding signal (z-score) [17]: 0.418 | glycan array binding signal (z-score) [18]: -0.204 | glycan array binding signal (z-score) [19]: 0.109 | glycan array binding signal (z-score) [20]: 0.03 | glycan array binding signal (z-score) [21]: 0.174 | glycan array binding signal (z-score) [22]: -0.334 | glycan array binding signal (z-score) (Neu5Ac(a2-3)GalNAc): -0.251 | glycan array binding signal (z-score) [23]: -0.498 | glycan array binding signal (z-score) [24]: -0.614 | glycan array binding signal (z-score) [25]: -0.491 | glycan array binding signal (z-score) [26]: -0.104 | glycan array binding signal (z-score) (Neu5Ac(a2-6)Gal): 0.626 | glycan array binding signal (z-score) (Neu5Ac(a2-6)Gal(b1-4)Glc): 0.02 | glycan array binding signal (z-score) [27]: 0.076 | glycan array binding signal (z-score) [28]: 0.066 | glycan array binding signal (z-score) [29]: -0.437 | glycan array binding signal (z-score) [30]: -0.415 | glycan array binding signal (z-score) [31]: -0.389 | glycan array binding signal (z-score) [32]: 0.018 | glycan array binding signal (z-score) [33]: -0.315 | glycan array binding signal (z-score) [34]: -0.604 | glycan array binding signal (z-score) [35]: -0.38 | glycan array binding signal (z-score) [36]: -0.276 | glycan array binding signal (z-score) (Neu5Ac(a2-6)GalNAc): -0.49 | glycan array binding signal (z-score) [37]: -0.506 | glycan array binding signal (z-score) (Neu5Ac(a2-8)Neu5Ac): -0.523 | glycan array binding signal (z-score) [38]: -0.405 | glycan array binding signal (z-score) [39]: 0.136 | glycan array binding signal (z-score) [40]: -0.521 | glycan array binding signal (z-score) [41]: -0.275 | glycan array binding signal (z-score) [42]: -0.221 | glycan array binding signal (z-score) [43]: -0.717 | glycan array binding signal (z-score) [44]: 0.294 | glycan array binding signal (z-score) (Neu5Ac(b2-6)GalNAc): -0.201 | glycan array binding signal (z-score) [45]: 0.048 | glycan array binding signal (z-score) [46]: -0.401 | glycan array binding signal (z-score) [47]: -0.11 | glycan array binding signal (z-score) (Neu5Gc(a2-3)Gal(b1-4)Glc): 0.058 | glycan array binding signal (z-score) [48]: -0.606 | glycan array binding signal (z-score) [49]: -0.362 | glycan array binding signal (z-score) [50]: -0.135 | glycan array binding signal (z-score) (Neu5Gc(a2-6)GalNAc): 0.096 | glycan array binding signal (z-score) [51]: 0.315
